Values quoted from earlier work, collected in patent US20100015147A1 (priority 2001, published 2010).

Tested on: influenza A and B viruses
Conditions: cited from earlier work

Compound	effect on virus replication
CC(=O)N[C@H]1[C@H]([C@H](O)[C@H](O)CO)OC(C(=O)O)=C[C@@H]1N=C(N)N [zanamivir]	inhibit replication of both influenza A and B viruses
CCOC(=O)C1=C[C@@H](OC(CC)CC)[C@H](NC(C)=O)[C@@H](N)C1 [oseltamivir]	inhibit replication of both influenza A and B viruses
